# The supplement of paper PMC11417369
# ± gives the standard deviation of the averaged measurements. The list shows a part of the results.
# Test system: PfAP2-I AP2 domain 3 (GST-tagged)
# Test: gcPBM binding intensity (ln(normalized median fluorescence intensity)); higher = stronger DNA binding
# How it was run: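 Alexa488 anti-GST antibody, scanned at 488 nm, detected GST-tagged P. falciparum DNA-binding domains that had been expressed in E. coli and incubated for 1 h on an Agilent 4 × 180k array. The array carried primer-extended double-stranded 36-bp intergenic genomic probes and negative controls. Binding intensity is the highest Masliner-normalised natural-log median intensity across replicate spots of either orientation of each probe.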
row,Sequence,gcPBM binding intensity (ln)
1,CCTTTCACATATAATACATGCATTATTATATATGAA [TGCATGCA_site287],8.28 ± 0.57
2,AGAATAATATAATAAAGTACAAACCTATCTAACTAC [XGTACX_site5477],7.87 ± 0.47
3,ATTATAAATAAATATTGTACTTATATGATCTATTTG [XGTACX_site3820],7.42 ± 0.38
4,ATTGCATTTGTAGATAATACAATATGGATTGTTATA [CACACA_negctrl_site1749],7.42 ± 0.64
5,GGATATATTATATGTACACACACATATAAGGGATTA [CACACA_site7884],7.87 ± 0.3
6,AAAAATTTTATATTCACACACATATTTATATTTATA [CACACA_site6439],7.71 ± 0.69
7,ATATATAAAAAAGCTAGTACACAAAAATATATAATG [XGTACX_site3001],8.1 ± 0.75
8,AAAAAAATTTATTAAAGTACTAGATAATCATATAAA [XGTACX_site1455],7.63 ± 0.61
9,TTCTTTTCTCTTTTAATCATATTATATAAATGAATA [CACACA_negctrl_site820],7.64 ± 0.67
10,CTTTTCTTTTTTTTTTGTACATAAAATTATTCCTTA [XGTACX_site3924],7.84 ± 0.49
11,AATATAGTCACACATACACACATATAGATTTATATA [CACACA_site7223],7.99 ± 0.55
12,TTTTGTTGCTCTTTTTTTTTTTTTTTTAACTGTATG [CACACA_negctrl_site1072],7.71 ± 0.73
13,AACCAATATGTGTATACACACATAAATATAAATATA [CACACA_site7729],7.83 ± 0.35
14,AAAAAAAAAAAAAGGTGTACATAAGTAAATTCATAT [XGTACX_site4206],8.23 ± 0.28
15,TATACATATAAATTGTGTACACATATATATATATTT [XGTACX_site7875],8.13 ± 0.18
16,TAAAAGGAAAAAAAAGCACACACAATATTACTTGAA [CACACA_site8831],7.75 ± 0.73
17,TATCAAAATTAGTATACACACAAAATTATTCAAATA [CACACA_site2232],7.47 ± 0.38
18,AATATATAAATTAATACATGCACATATAGAAAGGGA [TGCATGCA_site472],8.7 ± 0.52
19,CTTTTTACTTAATACACACACACACTAGAAAAAAAA [CACACA_site4680],8.35 ± 0.27
20,AAAAGATTGCTCCGCATGCACCTCCAAAAGTTCCTT [GTGCAC_site9993],8.62 ± 0.36
21,TACAAAAGCGATACGGCACACATTTCCTGTTTAAAT [CACACA_site2746],8.935 ± 0.078
22,TTTGCTTCCAAAAGTCGTACAAAAAATATTAAATAT [XGTACX_site4171],7.88 ± 0.19

row,Sequence,gcPBM binding intensity (ln)
1,ACAGAATACATATACACACATACAAAAAAGTGCATA [CACACA_site987],8.44 ± 0.38
2,TCATACTGTATATTTTGTACTTATATATATATTATA [XGTACX_site6136],7.87 ± 0.53
3,CATTATGTTGTAAATGCACACATACATATACACAGT [CACACA_site8990],9.63 ± 0.028
4,ATAATAAGCAAACACACACACACAAAAAAAAAAAAA [CACACA_site720],8.09 ± 0.77
5,TTATTTTGTTTTAAAAGTACACACTTTTAATTAGAT [XGTACX_site2271],8.05 ± 0.19
6,TATATAAACACGTACACACACATATAGGTATTTATA [CACACA_site7615],8.09 ± 0.31
7,TCTTAATTTGTTATATGTACATAATATAATTGTATA [XGTACX_site5184],7.79 ± 0.32
8,TATTTTGTAATAATTACACACGGAATTATAACAGAA [CACACA_site2355],7.99 ± 0.5
9,ATATATATATTTATATTTATATGTAAATATCAACGT [TGCATGCA_negctrl_site32],8.8
10,TTATATTAATAAAAAGAAAATCATTTTTTCTTTTAT [CACACA_negctrl_site1595],7.17 ± 0.51
11,AATATTATGTATAACCGTACATTATATATATAATAA [XGTACX_site1594],7.46 ± 0.46
12,ATTGTGTTAATGAAATGTACATTTTCTCTACGTTAA [XGTACX_site1322],7.82 ± 0.69
13,TCCTACATATTATAGTGTACATTTTCATGTTCATAT [XGTACX_site4308],7.92 ± 0.63
14,AAGTATTATATATTTTGTACATATATAAAACCACAA [XGTACX_site5508],7.75 ± 0.39
15,TTAAACTTGTTTTGGATGCACTATATAATTCATTTT [GTGCAC_site9549],9.45 ± 0.15
16,ATTAAAATAATTTAATTTCTTAGACACAATTTGTAA [GTGCAC_negctrl_site331],7.33 ± 0.31
17,GTGTAAAGGTATTATTGTATTATTCAAAATAAAAAA [CACACA_negctrl_site637],7.93 ± 0.33
18,TATTTATATTTATATACACACATACATATTTATATT [CACACA_site6535],7.68 ± 0.58
19,AAACAAAAAATTTAAAGTACAAAAATTATGATTGTT [XGTACX_site465],7.58 ± 0.39
20,AAAAAATTAATATTGACACACATTTTTAAGAATAAT [CACACA_site239],7.58 ± 0.48
21,AATATGTCTATATTTTTTATATGGAAATATTATAAA [GTGCAC_negctrl_site700],7.43 ± 0.35
22,CAAAAGGATAGGCACACACACACACCCATATATATA [CACACA_site2199],8.36 ± 0.67
